These results are taken from patent publication US11965006B2, “Antimicrobial and anti-cancer therapy” (UNIVERSITY OF PITTSBURGH—OF THE COMMONWEALTH SYSTEM OF …, priority 2016, dated 2024).

Square brackets hold non-standard residues; d marks the D form. Ends that are not written are not given here. Peptide text beside a SMILES is read from it.

The subject of one series is Pseudomonas aeruginosa cultures. The series is described as follows: Stability in apical epithelial secretion of ALI HBE cells (bactericidal activity retained). Particulars: AMP at 4 μM, secretion of ALI cultured primary HBE cells. As to the method: Apical epithelial secretion is collected from the apical site of air-liquid interface (ALI) cultured primary human epithelial (HBE) cells. Different AMPs were incubated at 4 μM with apical epithelial secretion for different periods of time (as indicated) to determine their stability. […] The stability may not due to resistance to N.E. digestion because there should be no N.E. in ALI HBE cultured cells. This observation indicates unexpected unique feature of D-WBLU2.
For the molecule “RRWVRRVRRVWRRVVRVVRRWVRR [SEQ ID No. 26, reference compound]”, the “stability: bactericidal activity after incubation with apical epithelial secretion” value (shortened to “stability: bactericidal activity”) is “lost part of its bactericidal activity”.

In the case of `CC(C)[C@@H](NC(=O)[C@H](Cc1c[nH]c2ccccc12)NC(=O)[C@H](CCCNC(=N)N)NC(=O)[C@H](CCCNC(=N)N)NC(=O)[C@H](NC(=O)[C@H](NC(=O)[C@H](CCCNC(=N)N)NC(=O)[C@H](NC(=O)[C@H](NC(=O)[C@H](CCCNC(=N)N)NC(=O)[C@H](CCCNC(=N)N)NC(=O)[C@H](Cc1c[nH]c2ccccc12)NC(=O)[C@H](NC(=O)[C@H](CCCNC(=N)N)NC(=O)[C@H](CCCNC(=N)N)NC(=O)[C@H](NC(=O)[C@H](CCCNC(=N)N)NC(=O)[C@H](CCCNC(=N)N)NC(=O)[C@H](NC(=O)[C@H](Cc1c[nH]c2ccccc12)NC(=O)[C@H](CCCNC(=N)N)NC(=O)[C@@H](N)CCCNC(=N)N)C(C)C)C(C)C)C(C)C)C(C)C)C(C)C)C(C)C)C(C)C)C(=O)N[C@@H](CCCNC(=N)N)C(=O)N[C@@H](CCCNC(=N)N)C(=O)O` [SEQ ID No. 34] (H-RRW[dV]RR[dV]RR[dV]WRR[dV][dV]R[dV][dV]RRW[dV]RR-OH; N-terminus and C-terminus assumed), the “stability: bactericidal activity” value is “no bacterial growth”.

Turning to `CC(C)[C@H](NC(=O)[C@H](Cc1c[nH]c2ccccc12)NC(=O)[C@H](CCCNC(=N)N)NC(=O)[C@@H](N)CCCNC(=N)N)C(=O)N[C@@H](CCCNC(=N)N)C(=O)N[C@@H](CCCNC(=N)N)C(=O)N[C@@H](C(=O)N[C@@H](CCCNC(=N)N)C(=O)N[C@@H](CCCNC(=N)N)C(=O)N[C@@H](C(=O)N[C@@H](Cc1c[nH]c2ccccc12)C(=O)N[C@@H](CCCNC(=N)N)C(=O)N[C@@H](CCCNC(=N)N)C(=O)N[C@H](C(=O)N[C@@H](C(=O)N[C@@H](CCCNC(=N)N)C(=O)N[C@@H](C(=O)N[C@@H](C(=O)N[C@@H](CCCNC(=N)N)C(=O)N[C@@H](CCCNC(=N)N)C(=O)N[C@@H](Cc1c[nH]c2ccccc12)C(=O)N[C@@H](C(=O)N[C@@H](CCCNC(=N)N)C(=O)N[C@@H](CCCNC(=N)N)C(=O)O)C(C)C)C(C)C)C(C)C)C(C)C)C(C)C)C(C)C)C(C)C` [SEQ ID No. 33] (H-RRWVRR[dV]RR[dV]WRRV[dV]R[dV][dV]RRW[dV]RR-OH; N-terminus and C-terminus assumed), the “stability: bactericidal activity” value was “no bacterial growth”.

`CC(C)[C@H](NC(=O)[C@H](Cc1c[nH]c2ccccc12)NC(=O)[C@H](CCCNC(=N)N)NC(=O)[C@@H](N)CCCNC(=N)N)C(=O)N[C@@H](CCCNC(=N)N)C(=O)N[C@@H](CCCNC(=N)N)C(=O)N[C@@H](C(=O)N[C@@H](CCCNC(=N)N)C(=O)N[C@@H](CCCNC(=N)N)C(=O)N[C@H](C(=O)N[C@@H](Cc1c[nH]c2ccccc12)C(=O)N[C@@H](CCCNC(=N)N)C(=O)N[C@@H](CCCNC(=N)N)C(=O)N[C@H](C(=O)N[C@@H](C(=O)N[C@@H](CCCNC(=N)N)C(=O)N[C@@H](C(=O)N[C@H](C(=O)N[C@@H](CCCNC(=N)N)C(=O)N[C@@H](CCCNC(=N)N)C(=O)N[C@@H](Cc1c[nH]c2ccccc12)C(=O)N[C@@H](C(=O)N[C@@H](CCCNC(=N)N)C(=O)N[C@@H](CCCNC(=N)N)C(=O)O)C(C)C)C(C)C)C(C)C)C(C)C)C(C)C)C(C)C)C(C)C` [SEQ ID No. 32] (H-RRWVRR[dV]RRVWRRV[dV]R[dV]VRRW[dV]RR-OH; N-terminus and C-terminus assumed): the “stability: bactericidal activity” value is given as “no bacterial growth”.

A further series concerns biotic biofilm. The series is described as follows: Biotic Biofilm Assay (bacteria/epithelial cell co-culture). As to conditions: FIGS. 12A and 12B, compared with LL37 and WLBU2. The text has this:
The Biotic Biofilm Assay is intended to mimic the conditions in the lungs of healthy subjects and patients with pulmonary diseases such as cystic fibrosis and other disorders where infectious agents are not efficiently removed from the surface of the alveoli. FIG. 11 provides a diagram of the steps involved in the Biotic Biofilm Assay. The Biotic Biofilm Assay is based on bacteria/epithelial cell co-culture model. Primary mouse or human airway epithelial cell (AEC) cultures were established as described in previous publications (Liu, Y., Di, M. E., Chu, H. W., Liu, X., Wang, L., Wenzel, S., and Di, Y. P. (2013) Increased susceptibility to pulmonary Pseudomonas infection in Splunc1 knockout mice, J Immunol 191, 4259-4268. Liu, Y., Bartlett, J. A., Di, M. E., Bomberger, J. M., Chan, Y. R., Gakhar, L., Mallampalli, R. K., McCray, P. B., Jr., and Di, Y. P. (2013) SPLUNC1/BPIFA1 contributes to pulmonary host defense against Klebsiella pneumoniae respiratory infection, Am J Pathol 182, 1519-1531). Human AEC are extracted from human tissues obtained from UPMC Presbyterian Hospital. For mouse AEC, mice were euthanized and tracheas immediately removed. […]
Anti-biofilm properties include the disruption of a biotic biofilm performed in 96-well plates. Sonication causes the release of bacterial cells from the biofilm, CFU/mL is measured for each bacterial dilution.
Regarding “LKKWWKTVKGLLGGLLGKVTSVIK [SEQ ID No. 14]”, the “anti-biofilm activity (biotic system), CFU/mL” value is “superior to LL37 (SEQ ID No. 25) and WLBU2 (SEQ ID No. 26)”.

Consider “LKKWWKTSKGLLGGLLGKVTSVIK [SEQ ID No. 13]”, for which the “anti-biofilm activity (biotic system), CFU/mL” value was “superior to LL37 (SEQ ID No. 25) and WLBU2 (SEQ ID No. 26)”.
